# Measured values taken from PMC12136788.
# Some of the results follow.
# T1: UNK ZnF1-3 (human, UniProt Q9C0B0 31-174)
# T1 sequence: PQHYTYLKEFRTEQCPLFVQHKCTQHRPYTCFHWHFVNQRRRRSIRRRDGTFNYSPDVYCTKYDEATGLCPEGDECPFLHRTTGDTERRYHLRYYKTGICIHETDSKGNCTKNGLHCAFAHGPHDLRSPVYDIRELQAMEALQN
# B1: chr15:51794541:51794542:-_ENSMUSG00000022314_ENSMUST00000022927|mus_mus|FALSE|FALSE (ssRNA)
# RNA: GGGAGUUCUACAGUCCGACGAUCCAUGGAAGUCUUAGUUUUAAAACUGAUUUCCCCCCCAUAAAAGUGCCAACACUUAAGCUAGAACUUUUCAACAUAAUUUUGUCCUACAAAGUGAACAUGUUUUGAUAUUUAUAUAGUCACCAACAGAGGAUUGAGCAUCA
# B2: 43613574_43613694_3151_3pUTR_ENSMUSG00000032012_ENSMUST00000034510|mouse|control|control (ssRNA)
# RNA: GGGAGUUCUACAGUCCGACGAUCAUGUUUGUGAUCCCUCAGCGAGUGUCACUUAGGGCUGAGUUGGCUGAGAUCCUGACAGGCAGGCCCUGGGAAUGCCCAUUUAGAAUGAGGGUAAUCUGGGGGCACAGAUGGAGAAACCGACAACAGAGGAUUGAGCAUCA
# B3: chr9:120860725:120860726:+_ENSMUSG00000006932_ENSMUST00000007130|mus_hu|FALSE|FALSE (ssRNA)
# RNA: GGGAGUUCUACAGUCCGACGAUCCAUUUUAGCUCCUUCUUGAUGUAAUAAAAGGUUGUGGAGAGUUGUAAUGGCAUAAAACAACACAGAAUCCACUGGUGAACCAAGCAUUUUCACCAGGGCAGGAAUGCCUCCAGACUUAAACAACAGAGGAUUGAGCAUCA
# B4: chr17:88398918:88398919:-_ENSMUSG00000005371_ENSMUST00000130379|mus_hu|motif|central (ssRNA)
# RNA: GGGAGUUCUACAGUCCGACGAUCAUGAAUUUUGUUAUGCCGAACAAUUGGACAACUGUUUGUCCUAAUUUGAAUUCCUGCGGAUGCAUUGCCAUAAAUGUCAUUUCCUUCAAUAAGGCCUCGUCCAUCACCAAAGAUGUAAACCAACAGAGGAUUGAGCAUCA
# B5: chr1:65854986:65854987:+_ENSG00000116675_ENST00000371069|hu_mus|FALSE|FALSE (ssRNA)
# RNA: GGGAGUUCUACAGUCCGACGAUCGAGGAUGCUGGGGUUCACAUCUUUUGUGCAGUAGUGUUCCCAUGGUGGAGUUAAGUCGAUCACUUUGUCUUGGGGCUGGACUUCUAUAUCCAGUGUCACUUGGAACAGCUGAGGAUAUUUCAACAGAGGAUUGAGCAUCA
# B6: chr11:18503389:18503390:-_ENSG00000074319_ENST00000251968|hu_hu|hu_hu_hu_mus_True|48_48 (ssRNA)
# RNA: GGGAGUUCUACAGUCCGACGAUCAUUUUCCAUUUUCUCCAGAGCAGAACUUAGUUCUUCAUCCUUCUUUUUCAAAAGUUCUAUGUUUUUAUCAACCUCAGCUACUUCUUGAUCUAAGCGGGUGACCAUCUCUUCCAGUUUCUGCAACAGAGGAUUGAGCAUCA
# B7: 120980267_120980387_1903_3pUTR_ENSG00000164109_ENST00000296509|human|control|control (ssRNA)
# RNA: GGGAGUUCUACAGUCCGACGAUCAAAGUAGGCUGACAAUAAGGCUAAGAGUAUAGUAAAGUACUAAAAUCAACACUUGUUCAACUGGAAUUGUUGGACUAAUUCCAAAGGACAUUUAUCUUUUCACAAUGAUGAAGUAAUAGCCAACAGAGGAUUGAGCAUCA
# B8: chr3:52290438:52290439:-_ENSG00000164091_ENST00000296490|hu_hu|motif|central (ssRNA)
# RNA: GGGAGUUCUACAGUCCGACGAUCUAUAUGCGUAUCUGUAUGCACACAGAUGUAUUUAAAUGAAGGUGCAUACACUGUGCGGAAAUACAAACAACAGAAAUCAAAGGUCAUAUAUAAAAACGCUAAAUAUGACAUAUAACACAGCAACAGAGGAUUGAGCAUCA
# B9: 45364558_45364678_5291_3pUTR_ENSG00000175387_ENST00000356825|human|control|control (ssRNA)
# RNA: GGGAGUUCUACAGUCCGACGAUCAAAUAAUUUUAACAAAAGGGAAAGCAUUUGACAGUGUUUAAAAGACAGACAAAUCAAGCAAAACUCAAUGUGGCUUAAGGUAAAAAAUACAACUAGGUAUUAAACAAUUUGUAAAAACUUCAACAGAGGAUUGAGCAUCA
# B10: chr4:115894766:115894767:+_ENSMUSG00000028698_ENSMUST00000030464|mus_hu|mus_mus_mus_hu_True|28_68 (ssRNA)
# RNA: GGGAGUUCUACAGUCCGACGAUCUUCCACACGGAAAUGUACUUCGGGUUUUCCAACGGCCAGUACCGUCCAGCCAAAACUACCCGAACAGGGUCCUCCCCCUCUCUUCUCUCCUCCACAACAAAAUGCCCCCGAACUUUCAAGCAACAGAGGAUUGAGCAUCA
# B11: chr14:89307221:89307222:+_ENSG00000165533_ENST00000346301|hu_mus|hu_hu_hu_mus_False|58_58 (ssRNA)
# RNA: GGGAGUUCUACAGUCCGACGAUCUCCUGUUUGGUUAGUGCCAGGGAGCUUCAAAGAUGUGCCAGGGCGUGGGACCUGAGCUAUAGCAUUUUCAUCCAGGAUCAUUUCAGCAAUUCCUUCCUGGUCCACAUCAAUUUCAUCUAUCAACAGAGGAUUGAGCAUCA
# B12: chr7:16573483:16573484:-_ENSMUSG00000070808_ENSMUST00000094821|mus_hu|FALSE|FALSE (ssRNA)
# RNA: GGGAGUUCUACAGUCCGACGAUCGGGGGCAGCGGCCGCCAGGAUCUGCCCGCCCACGUUGGCCGGCAGGGCUGAGAGCUGCUGCGGGAGCUGGACCGCCGGGGCGCCAGGCAGUAGGAACUGGUUCUGGCCCGGCAGCAUGUGCAACAGAGGAUUGAGCAUCA
# B13: chr7:65705844:65705845:+_ENSG00000169902_ENST00000304842|hu_mus|hu_hu_hu_mus_False|18_88 (ssRNA)
# RNA: GGGAGUUCUACAGUCCGACGAUCAAACGGAUCUUUGUUACAUAAAUAAGGGGCUGGCUCCCCAUGUUUAACAAUGACCUCCAGAAGGAAGGCUUGCAUGGCAGAAUCUAGCACUUCAUCAGUAACACCCGCCUCAUCCAAGCGCAACAGAGGAUUGAGCAUCA
# B14: chr11:35642274:35642275:-_ENSMUSG00000018848_ENSMUST00000018992|mus_mus|FALSE|FALSE (ssRNA)
# RNA: GGGAGUUCUACAGUCCGACGAUCCUGCUGACUUGGUGUCACGAUCAGGGGAGGGUUCUCCAAGUCUGGAUAUGCAGCCCUAAUGGCACAGCCAAAGACUUCCUGCAGGCGGCUGUUGAUGUUAAUCAUGUUUUUAGUUGGUUUCAACAGAGGAUUGAGCAUCA
# B15: chr1:165623523:165623524:+_ENSG00000143198_ENST00000367886|perfect_dup|motif|central (ssRNA)
# RNA: GGGAGUUCUACAGUCCGACGAUCAUAGCCAUAAGCAUAAAGAACUCGUCCAACAAUCCAGGCCAAGCCCAGGCCAGAAGCGGUACGCGGGUGGUAAACACCUCCAACAGCUAGAAAAAAUAAGAAGGGAGGAUACACUUCCAACAACAGAGGAUUGAGCAUCA
# B16: chrX:119680447:119680448:-_ENSG00000158290_ENST00000371322|hu_mus|motif|central (ssRNA)
# RNA: GGGAGUUCUACAGUCCGACGAUCAAACAAAAAAAUGCUCCUGAUCAUUAUCAUUUGCCUACAGUGGUUUUGCCAGCAUCGGUCGAUCUUUUUGAGAAAAAGAACACUAUCCAAUGAAUCUUCUCUGAACUGAUGAAUCUGUGCCAACAGAGGAUUGAGCAUCA
# B17: chr7:75932113:75932114:+_ENSG00000106211_ENST00000248553|hu_hu|motif|central (ssRNA)
# RNA: GGGAGUUCUACAGUCCGACGAUCCUGCGACCACUCCUCCGGCAGCCGGGGCAGCCCGAAGGCCUGGUCGAAGAGGCGGCGGUGCGGGUACCAGUCGCGGAAGGGGUCCCAGCUGGGGCCCCGCAGGAGCGAGAAGGGGACGCGCAACAGAGGAUUGAGCAUCA
# B18: 88893258_88893618_1652_CDS_ENSMUSG00000041263_ENSMUST00000052539|mouse|control|control (ssRNA)
# RNA: GGGAGUUCUACAGUCCGACGAUCAUCCCCCAAUUGAGCCUUCUGAACCAAGUUCCUAGCAGCCCCAAAAUGCGAGAUGAUUUUGUCCACUGAAGCGCUGACAGCUAUCAGGAGACCUUUCUUCUGCUCCUGCAGCUGGCCAGUCAACAGAGGAUUGAGCAUCA
# B19: chr17:48772226:48772227:-_ENSG00000154945_ENST00000285243|hu_mus|FALSE|FALSE (ssRNA)
# RNA: GGGAGUUCUACAGUCCGACGAUCUAAAAUUGAACAAUUUGUUUAUAAAAGCAACAGAUUCCAGAGUUAUGUAAAAACCCUAAUAAUUUUCAAAAUAACCUUUAUCUUUGAUACAAAAAUAAAGAUGCUAACUCCUUUAGUUCACAACAGAGGAUUGAGCAUCA
# B20: 103084259_103114241_1104_3pUTR_ENSMUSG00000033014_ENSMUST00000106860|mouse|control|control (ssRNA)
# RNA: GGGAGUUCUACAGUCCGACGAUCAUUACACCAACUUGCUGGACGUCACCGUUGCUGCCCCCAGGGAUGGGCACGCUGAGCUGGCGCUCCGGCUCCGGCAGACAGCGCAGGCAGAAGGAGUGCAGGCAGGGGAGCAGCUUGGGCCAACAGAGGAUUGAGCAUCA
# B21: chr12:39756943:39756944:-_ENSG00000139116_ENST00000544797|hu_mus|hu_hu_hu_mus_False|48_108 (ssRNA)
# RNA: GGGAGUUCUACAGUCCGACGAUCGGUUUGGCUAUUACCCCCAAGGGAAUCCUGCAAGAGUCUUGUCAGCUUAGAGUCUCUGUAAGGGACAUGUGUGGCUCUCUUGCUCUUGUCCCCCAAGGCGCUGAUUACAUUCCCAAGAGCCAACAGAGGAUUGAGCAUCA
# B22: chr5:128440902:128440903:+_ENSG00000066583_ENST00000173527|hu_mus|hu_hu_hu_mus_True|8_38 (ssRNA)
# RNA: GGGAGUUCUACAGUCCGACGAUCUUGAACGGUGCUGCCAAGUCCUUUGGGGUAUUGUUCCGUUAUGAUAACUGGAAUCCCUAAGAUCCGAGCUCCUUGCAACAAUCUCUGUCCCACACUAAUGAUGUCCCCAAAAUAUUUGAUCAACAGAGGAUUGAGCAUCA
# Molecular target: T1, UNK ZnF1-3
# Assay: nsRBNS (natural sequence RNA bind-n-seq); RBNS binding buffer (assumed for nsRBNS): 25 mM Tris pH 7.5, 150 mM KCl, 3 mM MgCl2, 0.01% Triton X-100, 500 ug/ml BSA, 20 U/ml SUPERase-In, 4 C; UNK is unkempt and MSI1 is Musashi-1; names of the RNAs are library labels; protein concentration not given here; high values mean tight binding
row,Binder,binding signal
1,B1,0.94 enrichment R
2,B2,0.978 enrichment R
3,B3,1.69 enrichment R
4,B4,0.859 enrichment R
5,B5,0.878 enrichment R
6,B6,0.466 enrichment R
7,B7,0.778 enrichment R
8,B8,0.834 enrichment R
9,B9,2.68 enrichment R
10,B10,1.11 enrichment R
11,B11,0.905 enrichment R
12,B12,0.86 enrichment R
13,B13,0.565 enrichment R
14,B14,0.908 enrichment R
15,B15,1.56 enrichment R
16,B16,1.14 enrichment R
17,B17,0.648 enrichment R
18,B18,0.717 enrichment R
19,B19,1.67 enrichment R
20,B20,1.1 enrichment R
21,B21,0.672 enrichment R
22,B22,0.86 enrichment R
